# Experimental data: the supplement of paper PMC7726561
# In all, about 1,100 sequences were measured (“thermal melting temperature (Tm) of peptide-HLA complex”: median about 58, lowest 2% from about 42 on). Some of the results follow.
# Target: HLA-A*02:01
# Test: thermal melting temperature (Tm) of peptide-HLA complex; higher = more thermostable pHLA complex
# Conditions: C1R-A*02:01
# 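Also: cell lysates heated 10 min at 37–73 °C, remaining pHLA pulled down with pan-class I antibody, peptides quantified by DIA-MS versus 37 °C, Tm where half the complex is lost.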
row,Sequence,thermal melting temperature
1,VLFEGRTVQL,57.3 °C
2,RLWDLTTGTTT,56.4 °C
3,ALNEEAGRLLL,62.1 °C
4,ALSALTARL,55.7 °C
5,SLDTQPKKV,40.4 °C
6,WLIEDGKVVTV,58.3 °C
7,ILSGIGVSQV,57.4 °C
8,LLYDLADQLHA,59.9 °C
9,VLKVFLENV,55.2 °C
10,MLDDRAYLV,61.5 °C
11,FLQPELVKL,59.1 °C
12,YLINEIDRI,61.8 °C
13,YLPPGFLSA,51.7 °C
14,FVMEGEPPKL,55.5 °C
15,TLSQAIVKV,54.1 °C
16,ALATLIHQV,63.3 °C
17,ALDEYNMKI,59.2 °C
18,KLLEEQGIFL,63.4 °C
19,RLPEIYIQL,58.7 °C

row,Sequence,thermal melting temperature
1,VMLDVPIRL,55.9 °C
2,NLAENISRV,59.1 °C
3,RLNEAAVTV,58 °C
4,ILLPEPSIRSV,60.3 °C
5,VLQYVVPEV,59.7 °C
6,RLWGEPVNL,63.2 °C
7,SLDPHAQVAV,48.9 °C
8,VIIPKNWSL,54.7 °C
9,KLADFGLARL,58.3 °C
10,VLFGREVSPA,54 °C
11,TLTSNIPEI,57.4 °C
12,TLTEEGVIKV,57.2 °C
13,ALLGKIEKV,58.1 °C
14,FGPPIPKGV,54.1 °C
15,KLGEIVTTI,57.2 °C
16,SLGKVFGV,62.9 °C
17,FILPKEIAV,58.7 °C
18,FVNEIISRI,59.8 °C
19,QQIGKVVQV,53.4 °C

row,Sequence,thermal melting temperature
1,FVIRNIVEA,52.1 °C
2,YLYESGETEKL,52.6 °C
3,SIYPLHDVFV,49.5 °C
4,FLLGHEIAHA,44.6 °C
5,IVLPAGALHQV,61.9 °C
6,SLQDEIQRV,60.9 °C
7,TTLEQPPSV,50.3 °C
8,HLDEAIHVL,51.9 °C
9,SLLRVGWSV,59.6 °C
10,FLLPKVQSIQL,61.5 °C
11,ALSGLAVRL,57 °C
12,RLSDQVLFV,62.4 °C
13,ILDEHVQRV,55.3 °C
14,NLLEIAPHL,52.1 °C
15,ILLDDQFQPKL,59.1 °C
16,FISEIIHQL,58.2 °C
17,SLYHIYVAL,55.7 °C
18,FMQHDVQEL,41.6 °C
